# Reference: PubChem BioAssay AID2675 (National Center for Advancing Translational Sciences (NCATS), 2010)
# Among all 280,000 compounds or so, about 100 (0.036%) were called active. Inconclusive results, whose numbers are uncertain, are shown with a selection of clear calls. The call rests on the fitted dose curve; in most records, active means well fitted inhibition curve with a large enough effect in the signal ratio, with a control signal flat (not every such curve was filed as active); inconclusive means small, poorly fitted or top-dose-only effect, or effect the other way, or a change in a side signal; inactive means no such curve, though single readings can be large or run the other way; the % refers to the signal ratio. A potency beside an inconclusive call is a rough fit, not a confirmed value. A note “side channel” means that the fit belongs to a control or component signal, not to the main read-out.
# Molecular target: Muscleblind-like protein 1 (Homo sapiens) (UniProt Q9NR56)
# Chain of UniProt Q9NR56 (Q9NR56 whole entry, looked up): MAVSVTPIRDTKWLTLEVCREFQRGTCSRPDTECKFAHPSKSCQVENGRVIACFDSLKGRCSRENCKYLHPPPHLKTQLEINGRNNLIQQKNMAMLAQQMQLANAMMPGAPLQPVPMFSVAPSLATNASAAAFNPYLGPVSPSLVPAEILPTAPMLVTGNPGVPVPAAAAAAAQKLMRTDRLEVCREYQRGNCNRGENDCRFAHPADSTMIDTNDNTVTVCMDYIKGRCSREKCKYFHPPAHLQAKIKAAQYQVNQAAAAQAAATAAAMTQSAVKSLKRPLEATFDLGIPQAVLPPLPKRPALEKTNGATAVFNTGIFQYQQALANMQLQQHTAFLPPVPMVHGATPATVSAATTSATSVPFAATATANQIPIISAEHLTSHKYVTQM
# Assay: qHTS Assay for Inhibitors of MBNL1-poly(CUG) RNA binding
# Conditions: TR-FRET MBNL1-His/biotin-(CUG)12 binding, 665/545 ratio; activity change, negative = inhibition: at 57.5 µM (top of the series)
# How it was run: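 Ratiometric TR-FRET (665 over 545 nm, excitation 340 nm) tracks disruption of MBNL1-His/biotin-(CUG)12 complex after 60 min at room temperature, with compounds at 92 nM to 58 uM final.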
# On the % scale 0 is the no-effect control and ±100 the full control effect; potency means the concentration at half of the fitted maximal effect; tags describe the fitted curve by direction and shape or compound fluorescence and quenching.
Compound,Potency,"activity change, negative = inhibition"
C/C(=N/NC(=O)c1ccc(Br)o1)c1ccc(C)o1,"inconclusive: 25.1 µM [quencher, side channel, single point]",
Cc1ccccc1/C=N/n1c(-c2ccccn2)n[nH]c1=S,,inactive: 1.5%
CC(=O)Nc1ccc(NC(=O)C2CCN(C(=O)c3cccs3)CC2)cc1,"inconclusive: 100 µM [inhibitor, single point]",
Cc1cc(NO)c(C(C)C)cc1N=O,"inconclusive: 35.5 µM [quencher, side channel, partial curve]",
O=C(COC(=O)c1ccc2c(c1Cl)C(=O)c1ccccc1C2=O)NC1CC1,"inconclusive: 5.62 µM [quencher, side channel, partial curve]",
Cc1ccc(-c2c(C(=O)N(C)Cc3ccccc3)oc(=O)c3ccccc23)cc1,"inconclusive: 3.16 µM [fluorescent, side channel, partial curve]",
COc1ccc(C(=O)c2c(C(F)(F)F)oc3c2C(=O)c2ccccc2C3=O)cc1OC,"inconclusive: 3.16 µM [quencher, side channel, partial curve]",
CC(C)CC(=O)Nc1cc([N+](=O)[O-])ccc1Cl,"inconclusive: 14.1 µM [quencher, partial curve]",
COc1cc(CNC(=O)C2CC2)ccc1OCc1ccccc1,,inactive: -2.1%
O=C(Oc1cccc(-c2cnc3ccccc3n2)c1)c1ccco1,"inconclusive: 11.2 µM [quencher, side channel, partial curve, poor fit]",
COc1ccccc1CC(=O)Nc1ccc2c(c1)C(=O)NC2=O,"inconclusive: 17.8 µM [quencher, side channel, partial curve]",
Cc1ccccc1Nc1ccc(S(=O)(=O)N2CCOCC2)cc1[N+](=O)[O-],"inconclusive: 6.31 µM [quencher, side channel, full curve, poor fit]",
Cc1ccc2cc3cc(C(=O)NCCCN4CCc5ccccc5C4)oc3nc2c1,"inconclusive: 10 µM [quencher, side channel, partial curve]",
Cc1cc(C)nc(SCC(=O)N/N=C/C=C/c2ccccc2)n1,"inconclusive: 12.6 µM [quencher, side channel, single point]",
Cc1nc(C)c(C(=O)Nc2ncc([N+](=O)[O-])s2)o1,"inconclusive: 12.6 µM [quencher, side channel, partial curve]",
O=C(CSc1ncccn1)N/N=C/c1ccc2c(c1)OCO2,"inconclusive: 28.2 µM [quencher, single point]",
O=[N+]([O-])c1ccc(Nc2ccccc2)c2nonc12,"inconclusive: 12.6 µM [quencher, side channel, partial curve]",
CCOc1ccc(Nc2nc(N)nc(CN(C)C3CCCCC3)n2)cc1,"inconclusive: 1580 µM [inhibitor, partial curve, poor fit]",
O=C(NC(=S)NCc1nc2ccccc2[nH]1)c1ccccc1F,,inactive: 2.73%
O=C1CSC(c2ccccc2F)N1c1ccccc1 (centres undefined),"inconclusive: 39.8 µM [quencher, side channel, single point]",

Compound,Potency,"activity change, negative = inhibition"
O=[N+]([O-])c1ccc2nc(-c3ccc(OC(F)F)cc3)cn2c1,"inconclusive: 1.58 µM [quencher, side channel, full curve]",
C=CCNC(=O)CSc1ncc2c(n1)-c1c(csc1SC)CC2,"inconclusive: 39.8 µM [quencher, side channel, single point]",
CSc1nc2sc3c(c2c2nncn12)CCC3,"inconclusive: 15.8 µM [quencher, side channel, single point]",
N#Cc1cc2c(nc1SCc1nc3ccccc3[nH]1)CCC2,"inconclusive: 17.8 µM [quencher, side channel, partial curve]",
CN1CC[n+]2cnc3ccccc3c21,,inactive: -4.34%
Cc1ccc(-c2nc3ccccc3nc2NN)cc1,"inconclusive: 12.6 µM [quencher, side channel, partial curve]",
Cc1cc(C=O)c(C)n1-c1ccc(N2CCCCC2)c([N+](=O)[O-])c1,"inconclusive: 14.1 µM [quencher, side channel, partial curve]",
Nc1ccc(Oc2ccc([N+](=O)[O-])cc2[N+](=O)[O-])cc1,"inconclusive: 7.08 µM [quencher, side channel, partial curve]",
c1ccc(-c2cc(-c3nnc4n3N=C(c3ccc5ccccc5c3)CS4)[nH]n2)cc1,"inconclusive: 3.55 µM [quencher, side channel, partial curve]",
COc1ccc(-c2cc(C(=O)Nc3ccc(C)c(N)c3)c3ccccc3n2)cc1,"inconclusive: 11.2 µM [quencher, side channel, full curve, poor fit]",
O=C1N/C(=C/c2ccc(N3CCCC3)cc2)C(=O)N1c1ccccc1,"inconclusive: 39.8 µM [quencher, side channel, single point]",
COc1ccc(-c2nn(-c3ccccc3)cc2/C=C2/SC(=S)N(CCC(=O)O)C2=O)cc1,,inactive: 4.82%
O=C(O)c1cc(Br)ccc1NS(=O)(=O)c1cccc2nsnc12,"inconclusive: 25.1 µM [quencher, side channel, single point]",
CC(=O)NC1=NC(=O)/C(=C/c2cc(C)n(-c3ccc(NC(C)=O)cc3)c2C)S1,"inconclusive: 14.1 µM [quencher, side channel, partial curve]",
Cc1cccc(C)c1NS(=O)(=O)c1ccc(-c2cnc(C3CC3)o2)cc1,,inactive: -0.533%
Cc1ccc(S(N)(=O)=O)cc1NC(=O)c1ccc2c3c(cccc13)CC2,"inconclusive: 25.1 µM [quencher, side channel, partial curve]",
O=C(COc1ccc(S(=O)(=O)N2CCOCC2)cc1)Nc1cccc([N+](=O)[O-])c1,"inconclusive: 15.8 µM [quencher, side channel, partial curve]",
CC1=C/C(=C(\c2cc(C)c(O)c(Br)c2)c2ccccc2S(=O)(=O)O)C=C(Br)C1=O,"inconclusive: 7.08 µM [quencher, side channel, partial curve]",
O=C(c1ccc(Br)cc1)c1cc(-c2ccccn2)c(N2CCOCC2)s1,"inconclusive: 8.91 µM [quencher, side channel, partial curve]",
CCc1cc(C(c2ccccn2)N2CCN(C)CC2)c(NC(=O)c2ccccc2)s1 (centres undefined),"inconclusive: 0.112 µM [fluorescent, side channel, partial curve, poor fit]",

Compound,Potency,"activity change, negative = inhibition"
COCCNc1ccnc2c(Cl)cccc12,,inactive: -18.2%
COC(=O)c1nnc(-c2ccccc2)c(-c2ccccc2)n1,"inconclusive: 11.2 µM [quencher, side channel, partial curve]",
O=C(COC(=O)Cc1ccsc1)NC(c1ccccc1)c1ccccc1,"inconclusive: 0.1 µM [fluorescent, side channel, partial curve, poor fit]",
C=CCOc1c(CNn2nnnc2N)cccc1OC,"inconclusive: 63.1 µM [inhibitor, single point]",
CNC(=O)c1ccc(-c2sc3nc(N4CCOCC4)c4c(c3c2N)CC(C)(C)OC4)o1,"inconclusive: 2 µM [quencher, side channel, full curve, poor fit]",
O=C(Nc1ccccc1)c1ccccc1N=Cc1ccccc1O,,inactive: 10.4% [at 11.5 µM]
O=C(CS(=O)(=O)Cc1ccccc1)Nc1ccc(S(=O)(=O)N2CCOCC2)cc1,"inconclusive: 100 µM [inhibitor, single point]",
CCOC(=O)CCCCC(=O)c1[nH]c(=O)[nH]c1CSc1nc(C)cc(C)n1,active: 31.6 µM,
C=C(Cl)COc1cc(C)cc2oc(=O)cc(CC)c12,,inactive: -3.46%
Cc1cccc(NC(=O)Nc2ccc(C#N)cc2)n1,"inconclusive: 7.08 µM [quencher, side channel, single point]",
COc1ccccc1NC(=O)c1ccc([N+](=O)[O-])cc1[N+](=O)[O-],"inconclusive: 7.08 µM [quencher, side channel, partial curve]",
COC(=O)C1=C(C)NC(=O)CC1c1ccc(C(=O)OC)cc1 (centres undefined),,inactive: -2.14%
O=[N+]([O-])c1ccc(N2CCN(Cc3ccccc3)CC2)s1,"inconclusive: 2.51 µM [quencher, side channel, full curve]",
O=C1OC(c2ccccc2)=N/C1=C\C=C\c1ccco1,"inconclusive: 31.6 µM [quencher, side channel, single point]",
COC(=O)Nc1nn(-c2ccc(Cl)cc2)c(=O)c(C#N)c1C,"inconclusive: 5.62 µM [quencher, side channel, partial curve]",
CN1CCN(C(=O)c2cc3c(=O)n4ccccc4nc3s2)CC1,"inconclusive: 28.2 µM [quencher, partial curve]",
CN(NC1OC(=O)c2ccccc21)c1c([N+](=O)[O-])cc(C(F)(F)F)cc1[N+](=O)[O-] (centres undefined),"inconclusive: 14.1 µM [quencher, partial curve]",
Cc1ccc(Cn2c(=N)c(C(=O)NCC3CCCO3)cc3c(=O)n4cccc(C)c4nc32)cc1 (centres undefined),"inconclusive: 3.16 µM [quencher, side channel, full curve]",
COc1ccc(C(=O)N/C(=C\c2cc(OC)c(OC)cc2[N+](=O)[O-])C(=O)NCCO)cc1,"inconclusive: 25.1 µM [quencher, side channel, partial curve]",
